From the RNAGym collection of RNA variant scans (doi:10.1101/gad.245936.114)
Variants at the floor of the assay are shown more often than the library holds them.

B1: tRNA (parent)
chain: CUCUCGGUAGCCAAGUUGGUUUAAGGCGCAAGACUUUAAUUUAUCACUACGAAAUCUUGAGAUCGGGCGUUCGACUCGCCCCCGGGAGAUUUUUUCCUCGAGCAA

Variants of: B1
Assay: nonsense suppression (GFP-seq) (ratio to wild type); higher = more function; SUP4oc tRNA, yeast GFP reporter sort-seq
Summary of the method: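 Yeast carrying genome-integrated SUP4oc tRNA variants from a library with ~3% random mutations were grown in raffinose/galactose medium with 80 mg/L adenine. Each strain also carried a galactose-driven GFP ochre reporter and RFP. Cells were sorted into GFP/RFP bins, and each bin was Illumina-sequenced (phred ≥30). Nonsense suppression (GFPSEQ) is the bin median GFP/RFP, weighted by each variant's estimated cell share per bin, relative to wild-type SUP4oc; variants needed ≥100 reads and ≥30 cells.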

Variant	nonsense suppression
A24C C34G C56U	≤ 0.026
A24C C34G G86U	≤ 0.026
A24C C56A G59A U63G	≤ 0.026
A24C C56U G88U A89U	≤ 0.026
A24C C64G	≤ 0.026
A24C C75U	1.18
A24C C75U C81G C82U	≤ 0.026
A24C C81U	0.2
A24C C82A G85U	≤ 0.026
A24C C83U	0.383
A24C G25A A60C	≤ 0.026
A24C G25C A62U	≤ 0.026
A24C G26A A30U C80G C81G	≤ 0.026
A24C G26C	≤ 0.026
A24C G26C G61A	≤ 0.026
A24C G26U G86C	≤ 0.026
A24C G28A	0.952
A24C G28C U55C U70C U71C C75G	≤ 0.026
A24C G28C U55C U70C U71C C75U	≤ 0.026
A24C G28U C79A	≤ 0.026
A24C G28U G67U C80A	≤ 0.026
A24C G32U A33C U35G G86A	≤ 0.026
A24C G59U G85U	≤ 0.026
A24C G66A	≤ 0.026

Variant	nonsense suppression
A24C G67A U70A	≤ 0.026
A24C G67C C83G	≤ 0.026
A24C G69U A89U	≤ 0.026
A24C G69U G78C	≤ 0.026
A24C G73C	≤ 0.026
A24C G78A	0.112
A24C G78U	0.0343
A24C G84A A87G	≤ 0.026
A24C G84A G85C	≤ 0.026
A24C G84U	≤ 0.026
A24C G88A	0.0453
A24C U35A C81U	≤ 0.026
A24C U55C G67U	≤ 0.026
A24C U58A	≤ 0.026
A24C U63C A87U	≤ 0.026
A24C U70A	≤ 0.026
A24C U70C G73A	≤ 0.026
A24C U71A G78C C80A A87G	≤ 0.026
A24G A30U	≤ 0.026
A24G A30U C81G	≤ 0.026
A24G A30U U70G C72A	≤ 0.026
A24G A31G	0.0322
A24G A31G G84C	≤ 0.026
A24G A31U A87U	≤ 0.026

Variant	nonsense suppression
A24G A33U G59C	≤ 0.026
A24G A60G C80U	≤ 0.026
A24G A60G G84C	≤ 0.026
A24G A60U C77G G85C	≤ 0.026
A24G A74C	≤ 0.026
A24G A74G	≤ 0.026
A24G A74G C77G A89U	≤ 0.026
A24G A74G G86A	≤ 0.026
A24G C29A	≤ 0.026
A24G C29A G86C	≤ 0.026
A24G C29U C34A G73A	≤ 0.026
A24G C34A	≤ 0.026
A24G C34A U70A	≤ 0.026
A24G C56A	≤ 0.026
A24G C64U	≤ 0.026
A24G C68A C82G G84U	≤ 0.026
A24G C77G	≤ 0.026
A24G C80G	≤ 0.026
A24G G25A	≤ 0.026
A24G G25C	≤ 0.026
A24G G26A	≤ 0.026
A24G G26A A60U G78C	≤ 0.026
A24G G26A U63C C64G	≤ 0.026
A24G G26U G32C G73A	≤ 0.026

Variant	nonsense suppression
A24G G28C	≤ 0.026
A24G G32A G67A G84A	≤ 0.026
A24G G59A G86U	≤ 0.026
A24G G59U	≤ 0.026
A24G G61A	≤ 0.026
A24G G65A	≤ 0.026
A24G G65C G78C	≤ 0.026
A24G G66A	≤ 0.026
A24G G66C U76C G88A	≤ 0.026
A24G G67A	≤ 0.026
A24G G69A A74C	≤ 0.026
A24G G69C	≤ 0.026
A24G G73C C82A G85C	≤ 0.026
A24G G78A C83A	≤ 0.026
A24G G84U	≤ 0.026
A24G G86C	≤ 0.026
A24G G88C	≤ 0.026
A24G U35C G67U	≤ 0.026
A24G U35G A87G	≤ 0.026
A24G U35G U71G G86U	≤ 0.026
A24G U57C A60G C75G	≤ 0.026
A24G U57G	≤ 0.026
A24G U58A	≤ 0.026
A24G U58A A87C	≤ 0.026

Variant	nonsense suppression
A24G U58A G84C	≤ 0.026
A24G U58G A60U U76A	≤ 0.026
A24G U63C G73A	≤ 0.026
A24G U63G C80A G85C	≤ 0.026
A24G U70G	≤ 0.026
A24G U71G	≤ 0.026
A24U A30C G66U	≤ 0.026
A24U A30G C80A	≤ 0.026
A24U A30U	0.0403
A24U A30U A62C	≤ 0.026
A24U A31G C79A	≤ 0.026
A24U A31G G66C	≤ 0.026
A24U A33U U58G G67C	≤ 0.026
A24U A54G A62U	≤ 0.026
A24U A60G	0.0422
A24U A60U	0.0572
A24U A62C U63C G66C	≤ 0.026
A24U A62G	0.0414
A24U A62G C82U	≤ 0.026
A24U A62U	0.0332
A24U A87G	0.147
A24U A89C	≤ 0.026
A24U C27A G88A	≤ 0.026
A24U C27U A30U C77U	≤ 0.026

Variant	nonsense suppression
A24U C27U G28U U58C G78C	≤ 0.026
A24U C27U U63C	≤ 0.026
A24U C29A A62U C80G	≤ 0.026
A24U C29U	0.233
A24U C29U A30U	≤ 0.026
A24U C29U U58A A62G	≤ 0.026
A24U C34A	≤ 0.026
A24U C34A C79G	≤ 0.026
A24U C64G G69C	≤ 0.026
A24U C72U	≤ 0.026
A24U C79A	≤ 0.026
A24U C80A G84C	≤ 0.026
A24U C80G	≤ 0.026
A24U C80U	0.192
A24U C82U	0.0571
A24U G25U G66U	≤ 0.026
A24U G25U U55A	≤ 0.026
A24U G26C G67A G84C	≤ 0.026
A24U G26U C27G C75G	≤ 0.026
A24U G26U C34U	≤ 0.026
A24U G28C	≤ 0.026
A24U G28C A87C	≤ 0.026
A24U G28U G61U	≤ 0.026
A24U G32U A60U	≤ 0.026

Variant	nonsense suppression
A24U G59U A60C	≤ 0.026
A24U G59U A74G C80U	≤ 0.026
A24U G61C	≤ 0.026
A24U G61C G78C	≤ 0.026
A24U G65C A87G	≤ 0.026
A24U G65C C82A	≤ 0.026
A24U G66A A89G	≤ 0.026
A24U G66U	≤ 0.026
A24U G67A	≤ 0.026
A24U G69A U71C G85A G86C	≤ 0.026
A24U G69U	≤ 0.026
A24U G73U	≤ 0.026
A24U G78A C81G	≤ 0.026
A24U G84C	0.107
A24U G85C	≤ 0.026
A24U G85C G88A	≤ 0.026
A24U G85U	0.0597
A24U G88C	≤ 0.026
A24U G88U	≤ 0.026
A24U U35A	≤ 0.026
A24U U35A G88C	≤ 0.026
A24U U35G A87C	≤ 0.026
A24U U35G A89G	≤ 0.026
